Drawing on PubChem BioAssay AID1963960 (Molecular Pharmacology Branch, DTP, NCI, 2024), this text covers viability, T/C and IC50 for eleven compounds.

The test system of this assay is MDA-MB-468 spheroids with HUVEC/MSC, viability. In words: Anticancer human tumor MDA-MB-468 cell line growth inhibition [PI3K].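 For all read-outs here: spheroids exposed to agents for seven days before readout.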 Particulars: for viability, T/C: stronger effect = lower value; for IC50: compound alone. The source says: Combinatorial screen of targeted agents with the PI3K inhibitors inavolisib, alpelisib, duvelisib, and copanlisib in multi-cell type tumor spheroids
A high-throughput screen of multi-cell type tumor spheroids was designed to identify active combinations of targeted small molecules and PI3K pathway inhibitors. Complex spheroids include a stromal component modeled by human endothelial cells (HUVEC) and fibroblasts modeled by human mesenchymal stem cells (MSCs). The concentration ranges selected for each drug and investigational agent were based upon clinically achievable concentrations if the clinical Cmax of the agent was known.
Compounds. The drugs and investigational agents: inavolisib (NSC800729), alpelisib (NSC765974), duvelisib (NSC772469), copanlisib (NSC816437), ipatasertib (NSC767898), afuresertib (NSC778305), talazoparib (NSC767125), sapanisertib (NSC764658), selumetinib (NSC741078), tovorafenib (DAY101, NSC766906), vemurafenib (NSC761431), ravoxertinib (NSC781343), sotorasib (NSC818433), MRTX1133 (NSC 836407), abemaciclib (NSC 768073), palbociclib (NSC758247), venetoclax (NSC 766270), SY5609 (NSC837396), enzalutamide (NSC755605), and darolutamide (NSC825331), were obtained from the National Cancer Institute (NCI) Developmental Therapeutics Program Chemical Repository. The FDA-approved anticancer drug set is available from the NCI Developmental Therapeutics Program. […] The stock solutions were prepared in dimethyl sulfoxide (DMSO, Sigma-Aldrich, St. Louis, MO, cat. D2650) at 800-fold the tested concentration and stored at -70 degrees C prior to their use. All drugs and investigational agents were tested over a range starting from a high concentration at or near the clinical Cmax and decreasing in half-log increments. If the clinical Cmax for an agent had not been determined, the highest concentration tested was 10 microM.
Cell Culture. All cells were maintained in an incubator at 37 degrees C and 5% CO2 with 95% humidity. The PDC lines were cultured according to standard operating procedures established by the NCI PDMR (https://pdmr.cancer.gov/sops/default.htm). All PDCs were thawed and cultured in Matrigel-coated flasks prepared with a working solution of 1X Ham's F-12 nutrient mix, without supplementation (Invitrogen, Waltham, MA, cat. 11765054), 100 U/mL penicillin-streptomycin (Invitrogen, cat. 15140122), and 2.5% Matrigel (Corning Inc., Corning, NY, cat. 354248) for the first three passages. The 354836-022-R-J1-PDC, 475296-252-R-J1-PDC, and 997726-040-R-J2-PDC lines were cultured in 6A media, which includes advanced DMEM/F-12 (Thermo Fisher Scientific, cat. 12634028), 10 mM HEPES (Thermo Fisher Scientific, cat. 15630080), 1X GlutaMAX supplement (Thermo Fisher Scientific, cat. 35050061), 0.1 mg/mL primocin (InvivoGen, San Diego, CA, cat. ant-pm-2), 10% defined fetal bovine serum, heat inactivated (HyClone Laboratories Inc., Logan, UT, cat. SH30070.03HI), 50% L-WRN conditioned media (ATCC, cat. CRL-3276), 1.25 mM N-Acetyl-L-cysteine (Sigma-Aldrich, cat. A9165), 10 mM nicotinamide (Sigma-Aldrich, cat. N0636), 1X B-27 supplement (Thermo Fisher Scientific, cat. 17504044), 1X N-2 supplement (Thermo Fisher Scientific, cat. 17502048), and 10 microM Y-27632 dihydrochloride (Tocris Bioscience, Bristol, United Kingdom, cat. 1254). The 624824-186-R-J2-PDC line was cultured in 6C/Colon 1B media, which includes all 6A media components plus 50 ng/mL human EGF recombinant protein (Thermo Fisher Scientific, cat. PHG0311). […]

Structures are written as SMILES. Some entries of the source have several records that differ or are many. Only these are listed. There may be further records. The values listed for one entry repeat one measurement across runs, samples, wells, individuals or studies.

In general, viability, T/C refers to the ratio of treated to control. On to `CC(C)n1nc(-c2ccc3oc(N)nc3c2)c2c(N)ncnc21`, for which the viability, T/C (compound alone 0.001 µM) is recorded as 114, 99.6, 85.9, 99.5%.

In the case of `C[C@@H](NC(=O)c1ncnc(N)c1Cl)c1ncc(C(=O)Nc2cc(C(F)(F)F)c(Cl)cn2)s1`, the viability, T/C reads like this: (compound alone 0.316 µM) 97.2, 114, 119, 93.2%; (compound alone 3.16 µM) 78.1, 106, 96.2, 78%; (compound alone 10 µM) 81.5, 101, 113, 78.3%. Consider `CCN1CCN(Cc2ccc(Nc3ncc(F)c(-c4cc(F)c5nc(C)n(C(C)C)c5c4)n3)nc2)CC1`, for which the viability, T/C is 94.5, 115, 79.9, 95.6% (compound alone 0.01 µM) and 89.8, 105, 79.6, 93.6% (compound alone 0.1 µM). Consider `C#Cc1c(F)ccc2cc(O)cc(-c3ncc4c(N5CC6CCC(C5)N6)nc(OCC56CCCN5CC(F)C6)nc4c3F)c12` (configuration not stated), for which the viability, T/C (compound alone 3.16 µM) is listed as 118, 89.3, 98, 86%. One may read the IC50 as the point on the concentration scale where inhibition reaches its midpoint. As for `Cc1nc(NC(=O)N2CCCC2C(N)=O)sc1-c1ccnc(C(C)(C)C(F)(F)F)c1` (configuration not stated), the IC50 (run of 05/08/2023) is recorded as 7.6 µM, 7.44 µM, 7.85 µM, 7.07 µM, 6.75 µM, > 10 µM, 8.5 µM. For `CC(Cn1ccc(-c2ccc(C#N)c(Cl)c2)n1)NC(=O)c1cc(C(C)O)[nH]n1` (configuration not stated), the viability, T/C (compound alone 10 µM) is 59.6, 86.8, 80.5, 83.5%. In the case of `CCCS(=O)(=O)Nc1ccc(F)c(C(=O)c2c[nH]c3ncc(-c4ccc(Cl)cc4)cc23)c1F`, the viability, T/C was 72.2, 97.3, 91.2, 85% (compound alone 0.0316 µM) and 114, 109, 88.2, 94.9% (compound alone 0.1 µM). Regarding `C=CC(=O)N1CCN(c2nc(=O)n(-c3c(C)ccnc3C(C)C)c3nc(-c4c(O)cccc4F)c(F)cc23)C(C)C1` (configuration not stated), the viability, T/C (compound alone 0.316 µM) is 84, 89.6, 102, 115%. With `Cn1nccc1Nc1nccc(-c2ccn(C(CO)c3ccc(Cl)c(F)c3)c(=O)c2)n1` (configuration not stated), the viability, T/C runs as follows: (compound alone 1 µM) 100, 102, 75.3, 80.9%; (compound alone 3.16 µM) 92.7, 104, 79.8, 71.7%. With `CC1(C)CCC(CN2CCN(c3ccc(C(=O)NS(=O)(=O)c4ccc(NCC5CCOCC5)c([N+](=O)[O-])c4)c(Oc4cnc5[nH]ccc5c4)c3)CC2)=C(c2ccc(Cl)cc2)C1`, the half-inhibitory concentration (IC50) is given as 5.52 µM, 4.62 µM, 4.86 µM, > 10 µM. Besides, the viability, T/C (compound alone 10 µM) is 7.89, 9.58, 15.9, 81.9%. Take `CC(C)NCC(C(=O)N1CCN(c2ncnc3c2C(C)CC3O)CC1)c1ccc(Cl)cc1` (configuration not stated): the viability, T/C (compound alone 0.316 µM) was 56.4, 74, 78.2, 83.1%.
